Structures can show the parent of a compound that is named as a salt. Whole data set: some 2,800 compounds, median “cell viability relative to vehicle” near 1.1, cut for the lowest 2% near 0.19. Some of the results follow.
The compounds below were run on NCI-H2228 parental (assay: cell viability relative to vehicle (fraction of vehicle); NCI-H2228 is an ALK-positive lung cancer line and DTP means drug-tolerant persister; higher = less growth inhibition). Details: 100 nM; treatment time 6 days.
Procedure, shortened: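 Values give cell viability as a fraction of vehicle-treated cells. Parental and drug-tolerant persister NCI-H2228 cells (persisters made with 1000 nM of a targeted drug for 13 days) were exposed in 384-well plates to the 3114-agent TargetMol anti-cancer compound library at 100 nM, with DMSO as vehicle. ATP was then read after 6 days by the CellTiter-Glo 3D Cell Viability Assay.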

Structure (SMILES) | cell viability
O=C(O)c1cc2ccccc2oc1=O [Coumarin-3-carboxylic acid] | 1.1
CCOc1ccccc1OCCN[C@H](C)Cc1ccc(OC)c(S(N)(=O)=O)c1 [Tamsulosin hydrochloride] | 0.984
O=S(=O)(O)CCS [Mesna] | 1.29
CN(C)C1CCN(C(=O)c2ccc(NC(=O)Nc3ccc(-c4nc(N5CCOCC5)nc(N5CCOCC5)n4)cc3)cc2)CC1 [Gedatolisib] | 0.26
O[C@H]1[C@H]2c3cc4c(cc3CN3CCC(=C[C@@H]1O)[C@H]23)OCO4 [Lycorine chloride] | 0.966
CCCCNC(=O)NS(=O)(=O)c1ccc(C)cc1 [Tolbutamide] | 1.06
C[C@@H]1O[C@@H](O[C@H]2[C@H](Oc3cc(O)c(C(=O)CCc4ccc(O)cc4)c(O)c3)O[C@H](CO)[C@@H](O)[C@@H]2O)[C@H](O)[C@H](O)[C@H]1O [Naringin dihydrochalcone] | 1.04
O=C(O)c1cc(-c2ccc(F)cc2F)ccc1O [Diflunisal] | 1.07
O=C(Nc1c(Cl)cncc1Cl)c1ccc(OC(F)F)c(OCC2CC2)c1 [Roflumilast] | 1.07
C=CC(=O)N1CC/C(=C\c2ccc(F)c([N+](=O)[O-])c2)C(=O)/C(=C/c2ccc(F)c([N+](=O)[O-])c2)C1 | 1.08
CCCS(=O)(=O)Nc1ccc(F)c(C(=O)c2c[nH]c3ncc(-c4ccc(Cl)cc4)cc23)c1F [Vemurafenib] | 1.2
Cc1cc(C)c(NC(=O)C2CC3CCC2C3)c(C)c1 (configuration not stated) | 1.12
CN(C)Cc1ccc(-c2nc3cccc4c3n2CCNC4=O)cc1 | 1.02
O=C(/C=C\n1cnc(-c2cc(C(F)(F)F)cc(C(F)(F)F)c2)n1)NNc1cnccn1 [Selinexor] | 0.515
CCCCCCc1ccc(O)cc1O [Hexylresorcinol] | 1.07
Cc1[nH]c(/C=C2\C(=O)Nc3ccc(S(=O)(=O)N(C)c4cccc(Cl)c4)cc32)c(C)c1C(=O)N1CCN(C)CC1 | 1.06
CC1(C)NC(=O)N(c2ccc([N+](=O)[O-])c(C(F)(F)F)c2)C1=O [Nilutamide] | 0.866
CCC1C/C(=C\c2cccnc2)C(=O)/C(=C/c2cccnc2)C1 (configuration not stated) | 1.06
COC(=O)[C@@H]1[C@H]2C[C@H]3c4[nH]c5ccccc5c4CCN3C[C@@H]2CC[C@@H]1O [Yohimbine hydrochloride] | 1.08
COc1ccc2cc([C@@H](C)C(=O)O)ccc2c1 [(R)-Naproxen] | 1.17
CC(C)NCC(O)COc1cccc2ccccc12 (configuration not stated) [Propranolol hydrochloride] | 1.09
O=C(Nc1ccc(OC(F)(F)Cl)cc1)c1cnc(N2CC[C@@H](O)C2)c(-c2cc[nH]n2)c1 [Asciminib] | 1.11
Cc1nc(NC(=O)N2CCC[C@H]2C(N)=O)sc1-c1ccnc(C(C)(C)C(F)(F)F)c1 [Alpelisib] | 0.822
CCCCc1nc(C)c(CC(=S)N(C)C)c(=O)n1Cc1ccc(-c2ccccc2-c2nnn[nH]2)cc1 [Fimasartan] | 1.02
COc1cc(OC)cc(-c2cc3cnc(N)nc3nc2NC(=O)NC(C)(C)C)c1 | 0.857
COc1ccc2cc1Oc1ccc(cc1)C[C@H]1c3cc(c(OC)cc3CCN1C)Oc1c(OC)c(OC)cc3c1[C@H](C2)N(C)CC3 [Tetrandrine] | 0.973

Structure (SMILES) | cell viability
Nc1ncnc2c1c(-c1cnc3[nH]ccc3c1)nn2C1CCCC1 | 0.622
O=C1CCc2cc(OCCCCc3nnnn3C3CCCCC3)ccc2N1 [Cilostazol] | 1.19
C=C(C)C1CC=C(C)CC1 (single isomer, unassigned; (+)) [(+)-Dipentene] | 1.05
CCNC(=O)C#Cc1ccc2c(C(=Nc3ccc(CN(C)C)cc3)c3ccccc3)c(O)[nH]c2c1 | 0.236
O=P(O)(O)C(Cl)(Cl)P(=O)(O)O [Disodium clodronate tetrahydrate] | 1.14
Oc1ccc(-c2nc3cc(O)cc(Br)c3o2)cc1 | 1.11
Cc1coc2c1C(=O)C(=O)c1c-2ccc2c(C)cccc12 [Tanshinone I] | 1.01
CCC(C)SSc1ncc[nH]1 (configuration not stated) | 0.956
CCC1=C(C)CN(C(=O)NCCc2ccc(S(=O)(=O)NC(=O)N[C@H]3CC[C@H](C)CC3)cc2)C1=O [Glimepiride] | 1.15
CC(C)=CC[C@H](O)C1=CC(=O)c2c(O)ccc(O)c2C1=O [Alkannin] | 0.875
C[C@@]12C[C@@]3(O)O[C@@H](O1)[C@]1(COC(=O)c4ccccc4)[C@H]3C[C@@]12O[C@@H]1O[C@H](CO)[C@@H](O)[C@H](O)[C@H]1O [Paeoniflorin] | 1.2
N#C/C(=C/c1ccc(O)c(O)c1)C(=O)N1CCc2ccccc21 [Tyrphostin AG 528] | 1.11
CCCCCCCCc1ccc(CCC(N)(CO)CO)cc1 [Fingolimod hydrochloride] | 1.02
CCN(CC)CCOc1ccc(Nc2nc(-c3ccccc3NC(=O)CCN3CCN(C)CC3)nc3ccccc23)cc1 | 1.15
C[C@]12CC[C@@H]3c4ccc(O)cc4CC[C@H]3[C@@H]1CCC2=O [Aquacrine] | 1.1
CC(C)[C@H](NC(=O)[C@H](CC(=O)O)NC(=O)[C@H](CCCCN)NC(=O)[C@@H](N)CCCN=C(N)N)C(=O)N[C@@H](Cc1ccc(O)cc1)C(=O)O [Thymopentin] | 1.2
Cc1cc(-n2cccc2)c(S(C)(=O)=O)cc1C(=O)N=C(N)N [Eniporide] | 1.24
CCOC(=O)C1=C[C@]2(CC)CCCN3CCc4c(n1c1ccccc41)[C@@H]32 [Vinpocetine] | 1.19
CC(C)c1cc(C(=O)N2Cc3ccc(CN4CCN(C)CC4)cc3C2)c(O)cc1O [Onalespib] | 0.29
CN1CCC(COc2cnc(-c3cccc(Cn4nc(-c5cccc(C#N)c5)ccc4=O)c3)nc2)CC1 [Tepotinib] | 1.2
Cc1c[nH]c2nc(Nc3ccc(N4CCN(C)CC4)c(F)c3)nc(-c3cccc(CC#N)c3)c12 | 0.777
O=C(O)CCC(=O)Nc1ccc(S(=O)(=O)Nc2nccs2)cc1 [Succinylsulfathiazole] | 1.12
O=C(O)CCn1c2c(c3ccccc31)C[C@H](NS(=O)(=O)c1ccc(F)cc1)CC2 [Ramatroban] | 0.815
COc1cnc(NS(=O)(=O)c2ccc(N)cc2)nc1 [Sulfameter] | 1.17
Cc1cccc(CN2CCN(C(c3ccccc3)c3ccc(Cl)cc3)CC2)c1 (configuration not stated) [Meclizine dihydrochloride] | 1.01
NC(Cc1ccccc1O)C(=O)O (racemic) [DL-O-Tyrosine] | 1.03

Structure (SMILES) | cell viability
OC1CCC(Oc2cccc3cnc(Nc4ccc5nc[nH]c5c4)nc23)CC1 (configuration not stated) | 0.504
O=NN(CCCl)C(=O)NC1CCCCC1 [Lomustine] | 0.994
CCOc1ccc(-c2nc(-c3cccc4c3CCC4NCCO)no2)cc1OCC (configuration not stated) | 0.97
O=c1c2cc(O)c(O)cc2oc2cc(O)c([C@@H]3O[C@H](CO)[C@@H](O)[C@H](O)[C@H]3O)c(O)c12 [Mangiferin] | 1.12
CC1=C[C@]2(O)O[C@@]3(CC2=C(C)C)[C@@H](C)CC[C@@H]13 [Curcumenol] | 1.1
Cc1nnc(C(C)C)n1C1C[C@H]2CC[C@@H](C1)N2CC[C@H](NC(=O)C1CCC(F)(F)CC1)c1ccccc1 (stereo in doubt) [Maraviroc] | 1.05
COc1ccc(-c2cc(=O)c3c(O)cc(O[C@@H]4O[C@H](CO[C@@H]5O[C@@H](C)[C@H](O)[C@@H](O)[C@H]5O)[C@@H](O)[C@H](O)[C@H]4O)cc3o2)cc1O [Diosmin] | 1.06
COc1cc(Nc2ncc(F)c(Nc3ccc4c(n3)N(COP(=O)(O)O)C(=O)C(C)(C)O4)n2)cc(OC)c1OC [Fostamatinib] | 1.03
COC(=O)c1cc(OC)c2c(c1-c1c(CO)cc(OC)c3c1OCO3)OCO2 [Bicyclol] | 0.898
CC1CS(=O)(=O)CCN1/N=C/c1ccc([N+](=O)[O-])o1 (configuration not stated) [Nifurtimox] | 1.02
COC1=C2C[C@@H](C)C[C@H](OC)[C@H](O)[C@@H](C)/C=C(\C)[C@H](OC(N)=O)[C@@H](OC)/C=C\C=C(/C)C(=O)NC(=CC1=O)C2=O [Geldanamycin] | 1.02
Oc1cc(CN2CCOCC2)c(O)cc1CN1CCOCC1 | 1.06
CN1CC2c3ccccc3Oc3ccc(Cl)cc3C2C1 (configuration not stated) [Asenapine Maleate] | 1.15
c1ccc2[nH]c(-c3cscn3)nc2c1 [Thiabendazole] | 1.23
Cn1cc(-c2ccc3nnc(C(F)(F)c4ccc5ncccc5c4)n3n2)cn1 | 1.01
CN1[C@@H](CC(=O)c2ccccc2)CCC[C@H]1C[C@H](O)c1ccccc1 [Lobeline hydrochloride] | 0.988
CCC(CC)CC1(C(=O)Nc2ccccc2SC(=O)C(C)C)CCCCC1 [Dalcetrapib] | 1.1
CCc1cnn2c(NCc3ccc[n+]([O-])c3)cc(N3CCCC[C@H]3CCO)nc12 [Dinaciclib] | 0.118
O=C1NC(=O)[C@@H](c2cn3c4c(cccc24)CCC3)[C@@H]1c1c[nH]c2ccccc12 [Tivantinib] | 0.933
CC(=O)Nc1ccc(C(=O)NC(C)(C)C)cc1 | 0.944
CCCN1CCN(c2ccc(C(=O)NC3(C(=O)NCC#N)CCCCC3)cc2)CC1 [Balicatib] | 1.07
C[C@H]1Oc2cc(cnc2N)-c2c(nn(C)c2C#N)CN(C)C(=O)c2ccc(F)cc21 [Lorlatinib] | 0.659
C[C@@]1(c2cc(-c3cncnc3)c(F)cc2F)CCSC(N)=N1 | 1.07
CC(C(=O)Nc1cccc(/N=C/c2c(O)ccc3ccccc23)c1)c1ccccc1 (configuration not stated) [Salermide] | 1.06
CC(C)Cc1ccc(-c2nc(-c3ccc(CN4CC(C(=O)O)C4)c(F)c3)no2)cc1 [S1p-receptor-agonist-1] | 1.05

— the supplement of paper PMC10600219
